These results are taken from the supplement of paper PMC9588766.

Where a name gives a salt, the structure may show the parent alone. Whole data set: some 1,900 compounds, median “cell viability of compound + 1 nM pemigatinib relative to pemigatinib-only (DMSO) wells” near 0.95, cut for the lowest 2% near 0.22. This is one part of the list.

For this assay, the system named is PDC-DUC18828. The assay can be described thus: cell viability of compound + 1 nM pemigatinib relative to pemigatinib-only (DMSO) wells (fraction); PDC-DUC18828 is a patient-derived cholangiocarcinoma cell line; higher = less growth inhibition. The following applies: first compound 1 µM; pemigatinib concentration 1 nM; 72 h. The method, then: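 Selleck Bioactive library screen in the patient-derived FGFR2 fusion-positive ICC cell line PDC-DUC18828 (500 cells/well). Each compound was tested at 1 uM with 1 nM pemigatinib, in triplicate, for 72 h. Viability was read by CellTiter-Glo and normalised to plate DMSO controls. Value is the paper's averaged normalised viability.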
For the compound `O=C(Oc1cc(S(=O)(=O)c2ccccc2)ccc1[N+](=O)[O-])c1ccc(Cl)cc1` + CCN1C(=O)N(c2c(F)c(OC)cc(OC)c2F)Cc2cnc3[nH]c(CN4CCOCC4)cc3c21 [pemigatinib], the cell viability was found to be 0.972.

For `COc1ccc(C2CC(=O)c3c(O)cc(OC4OC(COC5OC(C)C(O)C(O)C5O)C(O)C(O)C4O)cc3O2)cc1OC` (centres undefined) [Methyl-Hesperidin] + CCN1C(=O)N(c2c(F)c(OC)cc(OC)c2F)Cc2cnc3[nH]c(CN4CCOCC4)cc3c21 [pemigatinib], the cell viability was 0.932.

Regarding `Cc1cc(CN2CCN(c3c(Br)cnc4nc(-c5ccc(N6CCN(C)CC6)cc5)[nH]c34)CC2)no1` + CCN1C(=O)N(c2c(F)c(OC)cc(OC)c2F)Cc2cnc3[nH]c(CN4CCOCC4)cc3c21 [pemigatinib], the cell viability is 0.684.

`Cc1ccc(=O)n(-c2ccccc2)c1` [Pirfenidone] + CCN1C(=O)N(c2c(F)c(OC)cc(OC)c2F)Cc2cnc3[nH]c(CN4CCOCC4)cc3c21 [pemigatinib]: the cell viability came out at 0.896.

With `O=C(CCCN1CCN(c2ccccn2)CC1)c1ccc(F)cc1` [Azaperone] + CCN1C(=O)N(c2c(F)c(OC)cc(OC)c2F)Cc2cnc3[nH]c(CN4CCOCC4)cc3c21 [pemigatinib], the cell viability is 0.96.

Consider `O=C(Nc1ccncc1)c1cc([N+](=O)[O-])ccc1Cl` + CCN1C(=O)N(c2c(F)c(OC)cc(OC)c2F)Cc2cnc3[nH]c(CN4CCOCC4)cc3c21 [pemigatinib], for which the cell viability stood at 0.901.

In the case of `C[C@H](CCC(=O)O)[C@H]1CC[C@H]2[C@@H]3[C@@H](O)C[C@@H]4C[C@H](O)CC[C@]4(C)[C@H]3CC[C@]12C` [Ursodiol] + CCN1C(=O)N(c2c(F)c(OC)cc(OC)c2F)Cc2cnc3[nH]c(CN4CCOCC4)cc3c21 [pemigatinib], the cell viability turned out to be 0.992.

Take `C=CC(=O)N1C/C(=C\c2ccc([N+](=O)[O-])cc2)C(=O)/C(=C/c2ccc([N+](=O)[O-])cc2)C1` + CCN1C(=O)N(c2c(F)c(OC)cc(OC)c2F)Cc2cnc3[nH]c(CN4CCOCC4)cc3c21 [pemigatinib]: the cell viability is 0.245.

As for `CNc1nc(Nc2cn(C(C)(C)C#N)nc2C)ncc1C(F)(F)F` + CCN1C(=O)N(c2c(F)c(OC)cc(OC)c2F)Cc2cnc3[nH]c(CN4CCOCC4)cc3c21 [pemigatinib], the cell viability amounted to 0.977.

On to `COC(=O)C1=C(C#N)NC(C)=C(C(=O)OC(C)C)C1c1cccc([N+](=O)[O-])c1` (centres undefined) [Nilvadipine] + CCN1C(=O)N(c2c(F)c(OC)cc(OC)c2F)Cc2cnc3[nH]c(CN4CCOCC4)cc3c21 [pemigatinib], for which the cell viability was determined as 0.986.

As for `COCCCN1CCC(NC(=O)c2cc(Cl)c(N)c3c2OCC3)CC1` [Prucalopride Succinat] + CCN1C(=O)N(c2c(F)c(OC)cc(OC)c2F)Cc2cnc3[nH]c(CN4CCOCC4)cc3c21 [pemigatinib], the cell viability is 0.938.

As to `COCCCN1CCC(NC(=O)c2cc(Cl)c(N)c3c2OCC3)CC1` [Prucalopride] + CCN1C(=O)N(c2c(F)c(OC)cc(OC)c2F)Cc2cnc3[nH]c(CN4CCOCC4)cc3c21 [pemigatinib], the cell viability amounted to 0.9.

For `CC[C@@H]1C(=O)OC[C@@H]1Cc1cncn1C` [Pilocarpine HCl] + CCN1C(=O)N(c2c(F)c(OC)cc(OC)c2F)Cc2cnc3[nH]c(CN4CCOCC4)cc3c21 [pemigatinib], the cell viability is 0.967.

For `CN1CCc2c(c3ccccc3n2Cc2ccc(C(=O)NO)cc2)C1` [Tubastatin A HCl] + CCN1C(=O)N(c2c(F)c(OC)cc(OC)c2F)Cc2cnc3[nH]c(CN4CCOCC4)cc3c21 [pemigatinib], the cell viability is 0.992.

Regarding `CN1CCc2c(c3ccccc3n2Cc2ccc(C(=O)NO)cc2)C1` [Tubastatin A] + CCN1C(=O)N(c2c(F)c(OC)cc(OC)c2F)Cc2cnc3[nH]c(CN4CCOCC4)cc3c21 [pemigatinib], the cell viability is 0.974.

`Cc1c(CN2CCN(C(=O)[C@H](C)O)CC2)sc2c(N3CCOCC3)nc(-c3cnc(N)nc3)nc12` + CCN1C(=O)N(c2c(F)c(OC)cc(OC)c2F)Cc2cnc3[nH]c(CN4CCOCC4)cc3c21 [pemigatinib]: the cell viability stood at 0.611.

In the case of `CC(C)(CO)c1cc2cc(NC(=O)C3(c4ccc5c(c4)OC(F)(F)O5)CC3)c(F)cc2n1C[C@@H](O)CO` + CCN1C(=O)N(c2c(F)c(OC)cc(OC)c2F)Cc2cnc3[nH]c(CN4CCOCC4)cc3c21 [pemigatinib], the cell viability turned out to be 0.929.

On to `COc1cc2nccc(Oc3ccc(NC(=O)NC4CC4)c(Cl)c3)c2cc1C(N)=O` [Lenvatinib (E7080)] + CCN1C(=O)N(c2c(F)c(OC)cc(OC)c2F)Cc2cnc3[nH]c(CN4CCOCC4)cc3c21 [pemigatinib], for which the cell viability came to 0.963.

Regarding `CCC(C)(Oc1ccc(C2(c3ccc(OC(C)(CC)C(=O)O)cc3)CCCCC2)cc1)C(=O)O` (centres undefined) [Clinofibrate] + CCN1C(=O)N(c2c(F)c(OC)cc(OC)c2F)Cc2cnc3[nH]c(CN4CCOCC4)cc3c21 [pemigatinib], the cell viability came out at 1.03.

As to `C[C@@H](O[C@H]1OCCN(Cc2nn(P(=O)(O)O)c(=O)[nH]2)[C@H]1c1ccc(F)cc1)c1cc(C(F)(F)F)cc(C(F)(F)F)c1` [Fosaprepitant dimeglumine salt] + CCN1C(=O)N(c2c(F)c(OC)cc(OC)c2F)Cc2cnc3[nH]c(CN4CCOCC4)cc3c21 [pemigatinib], the cell viability was found to be 0.868.

For `CNc1cc(-c2cccc(Cl)c2Cl)nc(N)n1` + CCN1C(=O)N(c2c(F)c(OC)cc(OC)c2F)Cc2cnc3[nH]c(CN4CCOCC4)cc3c21 [pemigatinib], the cell viability came to 0.748.

Take `COc1nc(OCc2cccc(-c3ccccc3)c2C)ccc1CNCCNC(C)=O` [PD-1/PD-L1 inhibitor 2] + CCN1C(=O)N(c2c(F)c(OC)cc(OC)c2F)Cc2cnc3[nH]c(CN4CCOCC4)cc3c21 [pemigatinib]: the cell viability is 1.

In the case of `Cc1ncc(-c2ccnc(Nc3ccc(S(C)(=O)=O)cc3)n2)n1C(C)C` + CCN1C(=O)N(c2c(F)c(OC)cc(OC)c2F)Cc2cnc3[nH]c(CN4CCOCC4)cc3c21 [pemigatinib], the cell viability amounted to 1.

For the compound `OCc1c[nH]c2ccccc12` [Indole-3-carbinol] + CCN1C(=O)N(c2c(F)c(OC)cc(OC)c2F)Cc2cnc3[nH]c(CN4CCOCC4)cc3c21 [pemigatinib], the cell viability was 0.977.
